In paper PMC12136788:
Changes are numbered by the printed parent chain. This is one part of the list.

T1: UNK ZnF1-3 (human, UniProt Q9C0B0 31-174)
T1 sequence: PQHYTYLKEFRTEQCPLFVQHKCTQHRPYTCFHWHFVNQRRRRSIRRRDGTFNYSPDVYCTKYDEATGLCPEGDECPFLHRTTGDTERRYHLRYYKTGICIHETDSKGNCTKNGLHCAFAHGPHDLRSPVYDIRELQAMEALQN

B1: chr13:31722580:31722581:-_ENSG00000120694_ENST00000320027|hu_mus|FALSE|FALSE (ssRNA)
RNA: GGGAGUUCUACAGUCCGACGAUCCGAGUCGUGGUUCCAGACCAGAGAUAUUGGAAAAGGAACUGCAUCGGUGACAGAGAACUCUCUAACUUUAAAUGCCGGAGAAAGAAUUGCACACUGCAGUGCACAGCCUCUGGCCACAGCCAACAGAGGAUUGAGCAUCA
B2: chr8:126036873:126036874:-_ENSG00000164961_ENST00000318410|hu_hu|FALSE|FALSE (ssRNA)
RNA: GGGAGUUCUACAGUCCGACGAUCAUGAGCAACUGAGUUUCUUUUCAUCUUCAAAUUCAUUUGUGAUGGUGGGAAGAUCUAAGGACAAUCCUUCCAUUGAAGAAGUAGGAAAAACAGUUACAGCACUGUUCUGAACUCAUCAAACAACAGAGGAUUGAGCAUCA
B3: chr7:54823571:54823572:-_ENSG00000132432_ENST00000352861|hu_mus|hu_hu_hu_mus_False|98_108 (ssRNA)
RNA: GGGAGUUCUACAGUCCGACGAUCUCCCAUUAUAGCAAAUCCUAUUGCUGUAGCCAUGGCAAUCUUCUGGAAUUCUUUUCUGUCGGGUUUGGUGCAUCUUUUAACCAGCCGAAUUGAGUCCUUUACAAACUGCCGGCUGGGCUCCAACAGAGGAUUGAGCAUCA
B4: chr10:120825051:120825052:-_ENSG00000107581_ENST00000369144|hu_hu|motif|central (ssRNA)
RNA: GGGAGUUCUACAGUCCGACGAUCAUCCAGAAGUCGAGCAAUAUCCGUACGCUCAGGAGUAAUAGGGAUGGAAAGAGUGGCGGAAAGGACUCUAGUAGACAUUCUUUGCAUCUCAUCUUGUGUGAGAUUCUUUCUCAUUUCUCUCAACAGAGGAUUGAGCAUCA
B5: chr1:6324473:6324474:-_ENSG00000097021_ENST00000608083|hu_hu|FALSE|FALSE (ssRNA)
RNA: GGGAGUUCUACAGUCCGACGAUCCAACGCCUCCCGGCGCUCGGGACAACACUGUGUAGCAUUGAUACUGGAAUGAUAUAAAUAAAGCUUUGGUGUGUAGGUUUGCAGGAGAGAGUACAGGUUAACACUGUGAUACGAAAACUUCAACAGAGGAUUGAGCAUCA
B6: chr2:42510052:42510053:+_ENSG00000143924_ENST00000318522|hu_mus|motif|central (ssRNA)
RNA: GGGAGUUCUACAGUCCGACGAUCACAGUCUGUAUGACCCAGGUAGUGUCGCUGAGUCCUCUCCUCAUAAUUAAACAGGACGGCCACUGAGGCGAUAAAAUAAACUAUCUCCCCUGUGGGAAGCAGGUAUACAUUCGCUCUACACAACAGAGGAUUGAGCAUCA
B7: chr12:17277247:17277248:+_ENSMUSG00000020571_ENSMUST00000057288|mus_mus|FALSE|FALSE (ssRNA)
RNA: GGGAGUUCUACAGUCCGACGAUCAAUUUGAUGGCGUCAACUCGAUGACAUCAUCACUAGAAGAAUACAGACCGCUGACUGCUAGAAAGAAGGUGCAGCUCACCAGACCGAGCACCAGGCGAGCCAUGCCGAUCACCCGCAUUCCAACAGAGGAUUGAGCAUCA
B8: chr8:126036873:126036874:-_ENSG00000164961_ENST00000318410|hu_hu|motif|central (ssRNA)
RNA: B2 RNA with U79G, A80G
B9: chr7:16573483:16573484:-_ENSMUSG00000070808_ENSMUST00000094821|mus_mus|FALSE|FALSE (ssRNA)
RNA: GGGAGUUCUACAGUCCGACGAUCUGGUGCUGCAGCUGUGAGGAUCUGGCCUCCCACGUUGGCAGGCAGUGCAGAGAGUGACUGAGGGAGUUGUACGGCUGGGGUGCCUGGCAGCAAGAACUGGUUCUGGCCAGGCAGCAUGUGCAACAGAGGAUUGAGCAUCA
B10: 133248640_133250631_109_3pUTR_ENSMUSG00000000131_ENSMUST00000171861|mouse|control|control (ssRNA)
RNA: GGGAGUUCUACAGUCCGACGAUCUCAGAGUCUCCAAGUAGAAGAGAUUUUGUUUGAACAGGUGGAUGUCAGGCUGAAGAAAGGACUGUCCAAAAGCCUGCAUGAUGGCACUGAACUGGGGCUCAUUCUCCAUCUGCUCCUCAGCAACAGAGGAUUGAGCAUCA
B11: chr4:25749455:25749456:-_ENSG00000091490_ENST00000264868|hu_hu|hu_hu_hu_mus_False|98_108 (ssRNA)
RNA: GGGAGUUCUACAGUCCGACGAUCGCAAGCACUAGGACCCUAGAAAACACAGGGGGAAAAAAUGUAAACCAAUGUACAAUGUUAUCGCCUUCCCUGUGUGUGGAGUGUUUGUCUCAAGGCUCCUUCUAGCUGCUGGAUUUGGGACAACAGAGGAUUGAGCAUCA
B12: chr17:73774773:73774774:-_ENSG00000132475_ENST00000586270|hu_hu|FALSE|FALSE (ssRNA)
RNA: GGGAGUUCUACAGUCCGACGAUCUUUGGGCAUGAUGGUGACUCUCUUAGCGUGGAUGGCACACAGGUUGGUAUCUUCGAACAGACCCACCAGGUACGCUUCGCUAGCCUCCUGCAGCGCACCGAUGGCUGCGCUCUGAAACCUCAACAGAGGAUUGAGCAUCA
B13: chr2:73746717:73746718:-_ENSMUSG00000018770_ENSMUST00000018914|mus_hu|FALSE|FALSE (ssRNA)
RNA: GGGAGUUCUACAGUCCGACGAUCCAAAAUCAAGAAAGCAACCAUCAAACAAAAGAGACCCAUAGCUUCAGACAAGGCAAAUCCCAGGAUAGCAUAUGAGAACAGCUGCUGCUUCAGCGAAGGGUUUCUGGCAUAACCAAUGAUCAACAGAGGAUUGAGCAUCA
B14: 25286587_25286707_895_CDS_ENSMUSG00000054793_ENSMUST00000068023|mouse|control|control (ssRNA)
RNA: GGGAGUUCUACAGUCCGACGAUCCGCCUCGCAGGUGUAGGUGCCGUUAUCUGCAGAUACCAGGCCAGGUAGCGUGAGCGUCUCGCCCACCGCCUCCGCCCUCUCUGGCAGAGACUCAUUCCCACGGUUCCAGCGGAUCUGGUUCAACAGAGGAUUGAGCAUCA
B15: chr5:46091440:46091441:-_ENSMUSG00000015882_ENSMUST00000045586|mus_mus|motif|central (ssRNA)
RNA: GGGAGUUCUACAGUCCGACGAUCGAUAACUUUACCACAAUGGGUAAUUUCUCUUCCUAAAUUUUUCUAUGUAGGAACACGGUUUUAUGAAUGAAUUCUAGAUUAGGGUGCUGCCCACACACACAUUAAUCAUGAAAGAUACAUCAACAGAGGAUUGAGCAUCA
B16: chr4:136884974:136884975:-_ENSMUSG00000006699_ENSMUST00000030417|mus_hu|FALSE|FALSE (ssRNA)
RNA: GGGAGUUCUACAGUCCGACGAUCCACCCACUUUUCUUUCACGUUUUCAAAUGAAGAUGGAGAGACCACUGAAAAACAGACUAGAAAUACAUCUGUUUGUGGAUAACUCAGCGGUCGUAAUCUGUCAUAAUCCUCUUGCCCUGCCAACAGAGGAUUGAGCAUCA
B17: chr14:67423352:67423353:-_ENSMUSG00000022048_ENSMUST00000022629|mus_hu|FALSE|FALSE (ssRNA)
RNA: GGGAGUUCUACAGUCCGACGAUCGGACCAGGAUGACACAGCACUAUGCUUGCAAUGGCAAACGCUCAAAUCCUUUAGGCGGACCCAACGACCACCAUGAAAUGGUAGACCUGGGAGGUGAAAAGAUAAUGGGGCAAGGGAGGACAACAGAGGAUUGAGCAUCA
B18: chr7:54825262:54825263:-_ENSG00000132432_ENST00000352861|hu_hu|hu_hu_hu_mus_False|38_68 (ssRNA)
RNA: GGGAGUUCUACAGUCCGACGAUCCUGCCGGCUGGGCUCCACAAACUGCAUUACCUGAUCCAUGUUUUACCCAACCGGGAUUGAGAGCGUAGAGACAACGUAGCACUGAGAGAACCGAGCCCAACGGAACCGGAAGCUGGCAACCAACAGAGGAUUGAGCAUCA
B19: chr19:36933551:36933552:+_ENSMUSG00000024811_ENSMUST00000025729|mus_mus|motif|central (ssRNA)
RNA: GGGAGUUCUACAGUCCGACGAUCAUGGCCUUUAAAUUCAUACGAUAAUCUUUCCUUCAGCUGUGCCGUGGGGGCCAGGUCGGUAGCACUUUUAUUGUGACAGUUCAGCAGGGUUGGAUCUGCCCCGUAACUUAGGAGGAGAGACAACAGAGGAUUGAGCAUCA
B20: chr4:76721835:76721836:+_ENSG00000138768_ENST00000264904|hu_mus|hu_hu_hu_mus_True|48_58 (ssRNA)
RNA: GGGAGUUCUACAGUCCGACGAUCGUUUGGCUGGGGUUUCUGAGACGCUCUGGAAUAUAACUCAUGUUUGCUAAUAAUCCUAGUUUCUCUAUGAAAUUUCUCUUUGCCAAUCCUCUUCUCUAUUAGUUGCUUUAGUUUCUCUUUCAACAGAGGAUUGAGCAUCA
B21: chr16:87451109:87451110:-_ENSG00000140948_ENST00000268616|hu_hu|FALSE|FALSE (ssRNA)
RNA: GGGAGUUCUACAGUCCGACGAUCCUUCUCCAUGGAGAGCUGCUUAAAGACGGGGUAAUACUUGUGCAAACGCAGUUUCCUAAGCCAGUCUAGAAUCCCAUUCUGCUCCUGGGUCUGAGGGGUCUGCAGACUGGAAGGCAUGAGCAACAGAGGAUUGAGCAUCA
B22: chrX:71549762:71549763:+_ENSMUSG00000019087_ENSMUST00000019231|mus_mus|mus_mus_mus_hu_False|38_68 (ssRNA)
RNA: GGGAGUUCUACAGUCCGACGAUCAAACCCGUGUACUUCUUAUUGUUAGCACAACAUCACCAGAAAAAAAACAUAACAGCCAAGCAGGACAGACAGUCAAGUAGUCUUUCCACACUCCCAAACUCAGGGAGCCCUAUAACCUUACAACAGAGGAUUGAGCAUCA

Biological target: T1, UNK ZnF1-3
Test: nsRBNS (natural sequence RNA bind-n-seq); RBNS binding buffer (assumed for nsRBNS): 25 mM Tris pH 7.5, 150 mM KCl, 3 mM MgCl2, 0.01% Triton X-100, 500 ug/ml BSA, 20 U/ml SUPERase-In, 4 C; UNK is unkempt and MSI1 is Musashi-1; names of the RNAs are library labels; protein concentration not given here; high values mean tight binding

In order of rising binding signal:
1. B20  0.399 enrichment R
2. B14  0.578 enrichment R
3. B15  0.594 enrichment R
4. B3  0.602 enrichment R
5. B12  0.712 enrichment R
6. B2  0.767 enrichment R
7. B1  0.872 enrichment R
8. B21  0.893 enrichment R
9. B9  0.949 enrichment R
10. B4  0.965 enrichment R
11. B7  0.986 enrichment R
12. B10  0.988 enrichment R
13. B6  1.08 enrichment R
14. B16  1.12 enrichment R
15. B8  1.13 enrichment R
16. B11  1.13 enrichment R
17. B18  1.14 enrichment R
18. B19  1.18 enrichment R
19. B5  1.38 enrichment R
20. B13  1.39 enrichment R
21. B22  1.42 enrichment R
22. B17  1.98 enrichment R
